Measured values taken from the supplement of paper PMC4967469.
The IC50 comes from the fitted curve, where viability falls to half of the control; fits outside the tested doses are given as limits. AUC is the area under the same curve over the 256-fold range up to the top dose, as a fraction: 1 means no effect, lower means more sensitive. For some assays here: Any top dose called inferred was derived from the fitted curves, not read from the paper.

Tests used:
Assay in all cases: Viability of human cancer cell lines after 72 h of drug (GDSC screen)
Trametinib = compound: CC(=O)Nc1cccc(-n2c(=O)n(C3CC3)c(=O)c3c(Nc4ccc(I)cc4F)n(C)c(=O)c(C)c32)c1 [Trametinib]; conditions: top dose 1 µM
Description: (§1)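 Human cancer cell lines in 384-well plates, medium with 10% serum, drug for 72 h over a 256-fold dose range (nine 2-fold or five 4-fold steps up to the top dose). Adherent lines were fixed and stained with the nucleic acid dye Syto60, suspension lines read with resazurin; signal relative to control wells, capped at 0 and 100%. One two-parameter sigmoid per drug and line, fitted in a mixed model over all curves with the slope shared within a line.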

HG-6-64-1 = compound: CCN1CCN(Cc2ccc(NC(=O)c3ccc(C)c(/C=C/c4cnc5[nH]ccc5c4OC)c3)cc2C(F)(F)F)CC1 [HG-6-64-1]; conditions: top dose 5.12 µM; top dose inferred
Description: as §1

I-BET-762 = compound: CCNC(=O)C[C@@H]1N=C(c2ccc(Cl)cc2)c2cc(OC)ccc2-n2c(C)nnc21 [I-BET-762]; conditions: top dose 20 µM; top dose inferred
Description: as §1

PF-4708671 = compound: CCc1cncnc1N1CCN(Cc2nc3ccc(C(F)(F)F)cc3[nH]2)CC1 [PF-4708671]; conditions: top dose 10 µM; top dose inferred
Description: as §1

AV-951 = compound: COc1cc2nccc(Oc3ccc(NC(=O)Nc4cc(C)on4)c(Cl)c3)c2cc1OC [AV-951]; conditions: top dose 0.128 µM; top dose inferred
Description: as §1

MS-275 = compound: Nc1ccccc1NC(=O)c1ccc(CNC(=O)OCc2cccnc2)cc1 [MS-275]; conditions: top dose 5 µM; top dose inferred
Description: as §1

KIN001-244 = compound: O=C(NC(COc1ccc2[nH]c(=O)[nH]c2c1)c1ccccc1)c1cccn(Cc2ccc(F)c(F)c2)c1=O [KIN001-244]; conditions: top dose 20 µM; top dose inferred
Description: as §1

Cell Line | AUC (Trametinib) | IC50 (Trametinib) | AUC (HG-6-64-1) | IC50 (HG-6-64-1) | AUC (I-BET-762) | IC50 (I-BET-762) | AUC (PF-4708671) | IC50 (PF-4708671) | AUC (AV-951) | IC50 (AV-951) | AUC (MS-275) | IC50 (MS-275) | AUC (KIN001-244) | IC50 (KIN001-244)
GDM-1 (acute myeloid leukaemia, suspension) | 0.945 | > 1000 nM | 0.538 | 405 nM | 0.518 | 1390 nM | 0.937 | > 10000 nM | 0.542 | 10.3 nM | 0.567 | 471 nM | 0.473 | 1060 nM
GI-1 (glioma, adherent) | 0.912 | > 1000 nM | 0.81 | 2570 nM | 0.755 | 6540 nM | 0.971 | > 10000 nM | 0.987 | > 128 nM | 0.777 | 1920 nM | 0.882 | 19700 nM
GI-ME-N (neuroblastoma, adherent) | 0.341 | 19.2 nM | 0.693 | 1370 nM | 0.716 | 6450 nM | 0.911 | > 10000 nM | 0.921 | > 128 nM | 0.773 | 2680 nM | 0.58 | 2240 nM
GOTO (neuroblastoma, adherent) | 0.98 | > 1000 nM | 0.928 | > 5120 nM | 0.7 | 4980 nM | 0.98 | > 10000 nM | 0.978 | > 128 nM | 0.664 | 958 nM | 0.821 | 13800 nM
GR-ST (lymphoblastic leukaemia, suspension) | 0.952 | > 1000 nM | 0.763 | 2220 nM | 0.554 | 1810 nM | 0.869 | > 10000 nM | 0.976 | > 128 nM | 0.687 | 1180 nM | 0.739 | 7060 nM
GRANTA-519 (B-cell lymphoma, suspension) | 0.982 | > 1000 nM | 0.894 | 5080 nM | 0.96 | > 20000 nM | 0.982 | > 10000 nM | 0.982 | > 128 nM | 0.95 | > 5000 nM | 0.882 | 17500 nM
GT3TKB (stomach, adherent) | 0.285 | 16.8 nM | 0.738 | 1390 nM | 0.984 | > 20000 nM | 0.953 | > 10000 nM | 0.989 | > 128 nM | 0.883 | 4240 nM | 0.929 | > 20000 nM
H-EMC-SS (chondrosarcoma, adherent) | 0.158 | < 3.91 nM | 0.737 | 1890 nM | 0.959 | > 20000 nM | 0.964 | > 10000 nM | 0.965 | > 128 nM | 0.97 | > 5000 nM | 0.844 | > 20000 nM
HA7-RCC (kidney, adherent) | 0.813 | 608 nM | 0.9 | > 5120 nM | 0.982 | > 20000 nM | 0.956 | > 10000 nM | 0.985 | > 128 nM | 0.823 | 3340 nM | 0.824 | 13500 nM
HAL-01 (lymphoblastic leukaemia, suspension) | 0.825 | 510 nM | 0.69 | 1010 nM | 0.467 | 1030 nM | 0.921 | > 10000 nM | 0.985 | > 128 nM | 0.708 | 1110 nM | 0.897 | 19900 nM
HC-1 (hairy cell leukaemia, suspension) | 0.881 | 972 nM | 0.705 | 1180 nM | 0.744 | 6030 nM | 0.979 | > 10000 nM | 0.97 | > 128 nM | 0.589 | 542 nM | 0.697 | 4370 nM
HCC1187 (breast, suspension) | 0.978 | > 1000 nM | 0.983 | > 5120 nM | 0.896 | > 20000 nM | 0.962 | > 10000 nM | 0.985 | > 128 nM | 0.894 | > 5000 nM | 0.898 | > 20000 nM
HCC1500 (breast, adherent) | 0.943 | > 1000 nM | 0.844 | 3860 nM | 0.812 | 11200 nM | 0.928 | > 10000 nM | 0.977 | > 128 nM | 0.932 | > 5000 nM | 0.921 | > 20000 nM
HCC2157 (breast, suspension) | 0.986 | > 1000 nM | 0.867 | 4990 nM | 0.866 | 19400 nM | 0.976 | > 10000 nM | 0.909 | > 128 nM | 0.732 | 1490 nM | 0.95 | > 20000 nM
HCC2218 (breast, suspension) | 0.982 | > 1000 nM | 0.952 | > 5120 nM | 0.885 | > 20000 nM | 0.948 | > 10000 nM | 0.976 | > 128 nM | 0.65 | 909 nM | 0.808 | 13700 nM
HD-MY-Z (Hodgkin lymphoma, adherent) | 0.366 | 26.6 nM | 0.917 | > 5120 nM | 0.865 | 17800 nM | 0.967 | > 10000 nM | 0.969 | > 128 nM | 0.76 | 1780 nM | 0.768 | 7520 nM

Cell Line | AUC (Trametinib) | IC50 (Trametinib) | AUC (HG-6-64-1) | IC50 (HG-6-64-1) | AUC (I-BET-762) | IC50 (I-BET-762) | AUC (PF-4708671) | IC50 (PF-4708671) | AUC (AV-951) | IC50 (AV-951) | AUC (MS-275) | IC50 (MS-275) | AUC (KIN001-244) | IC50 (KIN001-244)
HDLM-2 (Hodgkin lymphoma, suspension) | 0.975 | > 1000 nM | 0.595 | 582 nM | 0.989 | > 20000 nM | 0.933 | > 10000 nM | 0.986 | > 128 nM | 0.731 | 1410 nM | 0.989 | > 20000 nM
HH (T-cell leukaemia, suspension) | 0.933 | > 1000 nM | 0.876 | > 5120 nM | 0.452 | 888 nM | 0.976 | > 10000 nM | 0.949 | > 128 nM | 0.699 | 1380 nM | 0.443 | 831 nM
HOP-62 (lung adenocarcinoma, adherent) | 0.438 | 42.4 nM | 0.547 | 428 nM | 0.854 | 15700 nM | 0.987 | > 10000 nM | 0.984 | > 128 nM | 0.573 | 496 nM | 0.874 | 19400 nM
HSC-39 (stomach, suspension) | 0.755 | 298 nM | 0.836 | 2750 nM | 0.974 | > 20000 nM | 0.779 | 3510 nM | 0.964 | > 128 nM | 0.832 | 2610 nM | 0.991 | > 20000 nM
HT (B-cell lymphoma, suspension) | 0.951 | > 1000 nM | 0.851 | 3440 nM | 0.621 | 2610 nM | 0.989 | > 10000 nM | 0.987 | > 128 nM | 0.794 | 2090 nM | 0.817 | 10100 nM
HT-144 (melanoma, adherent) | 0.167 | 5.19 nM | 0.505 | 330 nM | 0.953 | > 20000 nM | 0.945 | > 10000 nM | 0.976 | > 128 nM | 0.505 | 323 nM | 0.961 | > 20000 nM
HUTU-80 (digestive system, adherent) | 0.875 | 699 nM | 0.577 | 499 nM | 0.946 | > 20000 nM | 0.947 | > 10000 nM | 0.991 | > 128 nM | 0.775 | 1640 nM | 0.895 | 17000 nM
IMR-5 (neuroblastoma, adherent) | 0.946 | > 1000 nM | 0.825 | 2440 nM | 0.91 | > 20000 nM | 0.954 | > 10000 nM | 0.985 | > 128 nM | 0.989 | > 5000 nM | 0.889 | 16500 nM
IST-MEL1 (melanoma, adherent) | 0.48 | 54.4 nM | 0.729 | 1650 nM | 0.969 | > 20000 nM | 0.769 | 4500 nM | 0.972 | > 128 nM | 0.692 | 1210 nM | 0.886 | > 20000 nM
IST-MES1 (mesothelioma, adherent) | 0.985 | > 1000 nM | 0.656 | 873 nM | 0.938 | > 20000 nM | 0.902 | > 10000 nM | 0.98 | > 128 nM | 0.813 | 2740 nM | 0.911 | > 20000 nM
IST-SL1 (small cell lung carcinoma, semi-adherent) | 0.971 | > 1000 nM | 0.872 | 5110 nM | 0.561 | 1850 nM | 0.953 | > 10000 nM | 0.985 | > 128 nM | 0.644 | 795 nM | 0.818 | 11700 nM
JAR (urogenital system, adherent) | 0.956 | > 1000 nM | 0.988 | > 5120 nM | 0.974 | > 20000 nM | 0.919 | > 10000 nM | 0.987 | > 128 nM | 0.62 | 665 nM | 0.937 | > 20000 nM
JM1 (B-cell lymphoma, suspension) | 0.979 | > 1000 nM | 0.78 | 1810 nM | 0.598 | 2230 nM | 0.983 | > 10000 nM | 0.981 | > 128 nM | 0.539 | 392 nM | 0.877 | 15200 nM
JSC-1 (B-cell lymphoma, suspension) | 0.88 | > 1000 nM | 0.875 | 4960 nM | 0.468 | 1020 nM | 0.968 | > 10000 nM | 0.976 | > 128 nM | 0.481 | 278 nM | 0.689 | 4210 nM
JURL-MK1 (chronic myeloid leukaemia, suspension) | 0.227 | 10.1 nM | 0.051 | < 20 nM | 0.762 | 7120 nM | 0.891 | > 10000 nM | 0.827 | 77.7 nM | 0.686 | 1030 nM | 0.752 | 6590 nM
